# Test results published in PubChem BioAssay AID504637 (National Center for Advancing Translational Sciences (NCATS), 2011).
# Where “and” joins values, the source holds several entries; their conditions need not be identical. Equal entries are not always repeated. Hit rate of the full screen: of about 1,100 compounds, about 430 (39%) were called active. So high a share suggests a set chosen from earlier hits. This list was built around the results that the source calls inconclusive (neither active nor inactive); the mix of calls is not that of the screen. The call rests on the fitted dose curve; in most records, active means well fitted inhibition curve with a large enough effect; inconclusive means small, poorly fitted or top-dose-only effect, or effect the other way; inactive means flat fitted curve, though single readings scatter. Where the call is inconclusive, the potency comes from a doubtful curve fit.
# Target: ATP-dependent 6-phosphofructokinase (Trypanosoma brucei brucei) (UniProt O15648)
# Chain of UniProt O15648 (O15648 whole entry, looked up): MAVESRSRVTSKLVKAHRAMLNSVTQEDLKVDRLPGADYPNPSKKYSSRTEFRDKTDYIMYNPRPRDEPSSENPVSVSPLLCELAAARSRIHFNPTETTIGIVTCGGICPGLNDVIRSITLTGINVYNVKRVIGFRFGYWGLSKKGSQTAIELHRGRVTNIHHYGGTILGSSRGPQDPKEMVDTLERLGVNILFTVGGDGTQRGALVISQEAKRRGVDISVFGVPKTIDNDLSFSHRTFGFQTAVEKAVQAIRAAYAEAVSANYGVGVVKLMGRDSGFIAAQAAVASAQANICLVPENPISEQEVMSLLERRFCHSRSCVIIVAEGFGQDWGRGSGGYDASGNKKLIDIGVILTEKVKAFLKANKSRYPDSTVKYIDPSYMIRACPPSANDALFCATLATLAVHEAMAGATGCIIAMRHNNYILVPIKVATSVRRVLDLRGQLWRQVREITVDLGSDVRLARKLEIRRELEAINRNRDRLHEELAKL
# Assay: Inhibitors of T. brucei phosphofructokinase: Hit Validation; further: nearly all actives have a fitted effect of over 60% in size;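 on activity change, negative = inhibition: plate controls were full PFK enzyme control for no effect and no enzyme control for full effect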
# Details: purified T. brucei PFK, ADP-Glo luminescence, 45 min; series mostly up to 57.5 µM; activity change, negative = inhibition: at the top concentration
# Potency means the concentration at half of the fitted maximal effect; tags describe the fitted curve by direction and shape.
Structure (SMILES),Potency,"activity change, negative = inhibition"
Clc1ccc2scc(CN3CCCCC3)c2c1,"inconclusive: 37.9 µM [inhibitor, single point]",–
Cc1cc(CSc2ccccc2)ccc1NC(=O)COc1ccccc1,"inconclusive: 23.9 µM [inhibitor, partial curve]",–
COc1ccccc1NS(=O)(=O)c1cccc(-n2c(O)c(C=Nc3ccccc3C(=O)O)c3ccccc3c2=O)c1,"inconclusive: 9.53 µM [activator, partial curve]",–
CCn1nc(C(=O)NNS(=O)(=O)c2cc(/C=C/C(=O)O)cc(OC)c2OC)c2ccccc2c1=O,–,inactive: -8.81%
O=C(CCc1ccccc1)NNC(=O)c1ccc(NC(=O)c2ccccc2)cc1,"inconclusive: 37.9 µM [inhibitor, single point]",–
CC(=O)c1ccc(S(=O)(=O)N2CCN(CC(=O)Nc3ccc(Cl)c([N+](=O)[O-])c3)CC2)cc1,"inconclusive: 16.9 µM [inhibitor, partial curve]",–
Cc1nn(Cc2ccc(Cl)c(Cl)c2)c(C)c1NC(=O)c1cc(-c2ccco2)on1,active: 6.01 µM,–
O=C(Nc1ccc2ccccc2c1)c1ccccc1O,"inconclusive: 15.1 µM [activator, partial curve]",–
Cc1ccc(NC(=O)CSc2ncc3ccccn23)cc1C,–,inactive: -17.7%
O=C(O)/C=C\C(=O)Nc1ccc(N2CCN(c3ccc(Cl)c(Cl)c3)CC2)cc1,active: 10.7 µM,–
O=C(CCC(=O)N1CCOc2ccc(Cl)cc21)NCCN1CCOCC1,"inconclusive: 13.5 µM [inhibitor, partial curve]",–
COc1ccc(OC)c(-c2c3cc(O)c(=O)cc-3oc3cc(O)c(O)cc23)c1,active: 3.79 µM,–
N=c1ccn(Cc2ccc(Cl)cc2)cc1,"inconclusive: 21.3 µM [inhibitor, partial curve, poor fit]",–
CCOC(=O)Cn1c(=N)n(CCOc2cccc(C)c2)c2ccccc21,active: 13.5 µM,–
NS(=O)(=O)c1ccc(N/N=C/c2ccc(O)c(O)c2O)c([N+](=O)[O-])c1,"inconclusive: 26.9 µM [inhibitor, partial curve]",–
O=C(COC(=O)c1cccc(S(=O)(=O)N2CCc3ccccc3C2)c1)NCc1ccco1,"inconclusive: 37.9 µM [inhibitor, single point]",–
CCn1c(=O)c(C(=O)Nc2nc3ccccc3[nH]2)c(O)c2ccccc21,"inconclusive: 2.39 µM [activator, full curve]",–
COc1ccc(OC)c(CN2CCC(CNC(=O)Nc3cccc(Cl)c3)CC2)c1,"inconclusive: 21.3 µM [inhibitor, single point]",–
C=CCN1C(=O)/C(=C2/Sc3ccccc3N2CCCS(=O)(=O)O)SC1=S,"inconclusive: 12 µM [activator, partial curve]",–
CC(C)C(C(=O)O)N1C(=O)/C(=C/C=C/c2ccco2)SC1=S (stereo not given),active: 21.3 µM,–
COc1ccc(OCC(=O)OCC(=O)Nc2ccc3[nH]c(=O)[nH]c3c2)cc1,"inconclusive: 23.9 µM [inhibitor, single point]",–
C/C=C\C=C/C(=O)Nc1cccc(C2=NOC3(C2)C[C@@H](C(N)=O)N(C(=O)/C=C/C=C\C)C3)c1 (stereo not given in full),"inconclusive: 0.426 µM [inhibitor, full curve]",–
O=C(O)CCCNC(=O)c1ccc(NC(=O)Cc2ccc(Cl)cc2)cc1,"inconclusive: 30.1 µM [inhibitor, partial curve]",–
Cc1ccc(S(=O)(=O)N2[C@@H](c3ccccc3F)C(C(=O)O)=CC[C@H]2c2ccc(Cl)c(Cl)c2)cc1,–,inactive: 1.11%

Structure (SMILES),Potency,"activity change, negative = inhibition"
NC[C@H](O)c1ccc(O)c(O)c1,–,inactive: -20.4%
C/C=C/C=C/C(=O)N1CC2(CC(c3cccc(NC(=O)CCCCC)c3)=NO2)C[C@H]1C(N)=O (stereo not given in full),"inconclusive: 37.9 µM [inhibitor, single point]",–
Cc1cc(C)nc(NS(=O)(=O)c2ccc(NC(=O)c3cc(=O)c4ccccc4o3)cc2)n1,"inconclusive: 12 µM [activator, partial curve]",–
COC(=O)C1CCN(C(=O)COC(=O)c2cc(-c3ccccc3)nc3ccc(OC)cc23)CC1,"inconclusive: 23.9 µM [inhibitor, partial curve]",–
CC(=O)[C@H]1[C@H]([C@H](O)[C@H](O)CO)O[C@](O)(C(=O)O)C[C@@H]1O,–,inactive: -16.2%
Nc1nc(=S)c2ncn(C3CCCC3)c2[nH]1,"inconclusive: 37.9 µM [inhibitor, single point]",–
CCc1nn2c(N)c(/C=C3\C=Nc4ccccc43)c(=O)nc2s1,"inconclusive: 15.1 µM [activator, partial curve] and inconclusive: 16.9 µM [activator, partial curve]",–
Cc1ccc(CC(=O)Nc2ccc(S(=O)(=O)N3CCOCC3)cc2)cc1C,–,inactive: -29.8%
O=Cc1cccc(OC(=O)/C=C/c2ccco2)c1,active: 12 µM,–
CCn1cc(C(=O)NCc2ccco2)c(=O)c2cc(F)c(N3CCN(C(=O)c4ccco4)CC3)cc21,"inconclusive: 10.7 µM [inhibitor, partial curve]",–
CCc1nnc(NC(=O)CSc2nc(C)c3c(c2C#N)CCCC3)s1,–,inactive: 16.2%
O=C(O)COc1ccccc1C=NNc1ccc([N+](=O)[O-])cc1S(=O)(=O)Nc1ccc(Cl)cc1,"inconclusive: 33.8 µM [inhibitor, single point]",–
O=C1Nc2cc(Cl)c(Cl)cc2N(O)N1c1ccc(Cl)c(Cl)c1,–,inactive: -14.5%
O=C(NCCS(=O)(=O)N1CCN(c2cccc(Cl)c2)CC1)c1ccc2c(c1)OCO2,"inconclusive: 26.9 µM [inhibitor, partial curve]",–
N=C1SCC(=O)N1c1ncc(Cc2cccc(Cl)c2)s1,"inconclusive: 30.1 µM [inhibitor, single point]",–
Cc1ccc(C(=O)NNC(=O)CNc2cccc(Cl)c2)cc1,active: 23.9 µM,–
Cc1cc(SCc2ccc(Cl)c(Cl)c2)nc(=O)[nH]1,active: 23.9 µM,–
NS(=O)(=O)c1cc(C(=O)NC2CCSc3ccccc32)ccc1Cl (stereo not given),"inconclusive: 30.1 µM [inhibitor, partial curve]",–
COc1ccccc1OCCNC(=O)Cc1ccc(Cl)c(Cl)c1,"inconclusive: 26.9 µM [inhibitor, single point]",–
Fc1cccc(-c2csc(-c3ccno3)n2)c1,"inconclusive: 26.9 µM [inhibitor, single point]",–
Cc1ccc(NC(=S)Nc2ccc(Cl)c(Cl)c2)c(OC(F)F)c1,"inconclusive: 30.1 µM [inhibitor, single point]",–
O=C(N/N=C/c1ccco1)C1COc2ccccc2O1 (stereo not given),"inconclusive: 37.9 µM [inhibitor, partial curve, poor fit]",–
CC/C(=N/Nc1cccc(Cl)c1)c1cnnc(SC)n1,"inconclusive: 30.1 µM [inhibitor, partial curve, poor fit]",–
O=C(Cc1ccc(Cl)cc1)N/N=C/c1cccc(O)c1,active: 12 µM,–

Structure (SMILES),Potency,"activity change, negative = inhibition"
Cc1ccc(C(=O)Nc2cccc3[nH]c(C(F)(F)F)nc23)cc1,"inconclusive: 21.3 µM [inhibitor, single point]",–
Cc1cc(NS(=O)(=O)c2ccc(NC(=O)Cc3ccc(Cl)c(Cl)c3)cc2)no1,active: 0.757 µM,–
COc1ccccc1/C=C1\SC(=S)N(NS(=O)(=O)c2ccccc2)C1=O,"inconclusive: 30.1 µM [activator, single point]",–
Cc1ccc(N/N=C/c2c(C)c(C#N)c(=O)n(C)c2O)cc1C,–,inactive: -2.62%
NC(=O)Nc1ccc(Cl)cc1,active: 30.1 µM,–
Cc1cc(Br)ccc1N=C1NC(=O)CS1,–,inactive: -23.3%
Oc1cc2c(cc1C(c1ccc(Cl)c(Cl)c1)N1CCCC1)OCO2 (stereo not given),"inconclusive: 37.9 µM [inhibitor, single point]",–
Oc1ccc(O)c(Cc2nc3ccccc3s2)c1,"inconclusive: 26.9 µM [inhibitor, single point]",–
O=[N+]([O-])/C=C/c1ccc2c(ccn2Cc2ccccc2)c1,active: 23.9 µM,–
O=C(Nc1ncc(Cc2cccc(Cl)c2)s1)C1CCCO1 (stereo not given),"inconclusive: 21.3 µM [inhibitor, partial curve]",–
COc1cccc2c1NC(C(=O)O)C1CC=CC21 (stereo not given),"inconclusive: 13.5 µM [inhibitor, partial curve]",–
COC(=O)C1CCN(C(=O)c2cc(-c3ccco3)nc3ccccc23)CC1,–,inactive: -25.5%
COc1ccccc1C(=O)Nc1ccc2c(c1)C(=O)NC2=O,"inconclusive: 33.8 µM [inhibitor, single point]",–
O=[N+]([O-])c1ccc(N/N=C/c2ccc(O)c(O)c2O)c(S(=O)(=O)N2CCOCC2)c1,"inconclusive: 26.9 µM [inhibitor, partial curve]",–
Cc1cccc(N2CCN(C(=S)c3ccc([N+](=O)[O-])cc3)CC2)c1,"inconclusive: 37.9 µM [inhibitor, single point]",–
Cc1cc(C)n2nc3nc(N4CCCCC4)nc(-c4ccco4)c3c2n1,–,inactive: -1.72%
Cc1ccc(CC(=O)NNC(=O)c2ccncc2)cc1C,active: 21.3 µM,–
CN(C)c1ccc(/C=N/NC(=O)c2ccnn2C)cc1,–,inactive: -11.8%
COc1ccc(C(=O)COC(=O)/C=C/c2ccccc2)c(OC)c1,–,inactive: -14.3%
CCCCCc1nnc(NC(=O)Cc2cccs2)s1,"inconclusive: 30.1 µM [inhibitor, partial curve]",–
O=C(/C=C/c1ccco1)OCC(=O)N1CCCCC1,"inconclusive: 10.7 µM [inhibitor, partial curve]",–
Cc1ccc(C(=O)NCC(=O)OCC(=O)Nc2ccc3[nH]c(=O)[nH]c3c2)cc1,"inconclusive: 37.9 µM [inhibitor, single point]",–
